The labels stand for the following.
B1: TPR 5TU (parent)
chain: GGAUCUUCUCGAUCUAACAAAAAAGACAAAUCUGCCACAAAGCUUGAGAGCAUCUUCGGAUGCAGAGGCGGCAGCCUUCGGUGGCGCGAUAGCGCCAACGUUCUCAACUAUGACACGCAAAACGCGUGCUCCGUUGAAUGGAGUUUAUCAUG

Variants at the floor of the assay are shown more often than the library holds them. Where only a bound is given, the exact number is not on record here.

Consider 19 variants from the RNAGym collection of RNA variant scans (doi:10.1073/pnas.2313332121).

This data set covers variants of B1. The data set can be described thus: polymerase ribozyme fitness, log enrichment relative to wild type (log ratio); higher = more active; in vitro selection for triplet polymerase activity. Summed up: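 Only genotypes with ≥10 input reads and ≥1 read per output were kept after Illumina sequencing of input and output libraries. These libraries were PCR-built, transcribed mutants of each subunit of a heterodimeric triplet polymerase ribozyme, each put through one triplicate in vitro selection round with frozen incubation at −7 °C, gel excision of extended constructs, streptavidin-bead capture and RT-PCR. Fitness is a logarithmic ratio of genotype enrichment to wild-type enrichment, from inverse-variance-weighted replicate averages, with the logarithm in base 2.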
As to GGAUCUUCUCGAUCUAACAAGAAAGACAGAUCUGCCACAAAGCUUGAGAGCAACUUCGGAUGCAGAGGCGGCAGCAUUCGGUGGCGCGAUAGCGCCAACGUUCUCAACUAUGACACGCAAAACGCGUGCUCCGUUGAAUGGAGUUUAUCAUG [A21G A29G U53A C76A], the “polymerase ribozyme fitness (log ratio)” value was at most -4.2.
With GGAUCUUCUCGAUCUAACAAGAAAGACAAAUCUGCCACAUAGCUUGAGAGCCUCUUCUGAUGCAGAGCCGGCAGCCUUCGGUGGCGCCAUAACGCCAACGUUCUCAACUAUUACACGCAAAACGCGUGCUCCGUAGAAUGGAGUUUAUCAUG [A21G A40U A52C G58U G68C G88C G92A G112U U135A], the “polymerase ribozyme fitness (log ratio)” value was at most -4.2.
On to GGAUCUUCUCGAUCUAACAACAAAGACAAAUCUGCCACAAAGCUUGAGAGCAUCUUCGGAUGCAGAGGCGGCAGCCUUCGGUCGCGAGAUAGCUCCAACUUUCUCAACUAUGACACGCAAAACGCGUGCUCCGUUGAAUGUAGUUUAUCAUG [A21C G83C C87A G94U G100U G141U], for which the “polymerase ribozyme fitness (log ratio)” value was at most -4.2.
GGAUCUUCUCGAUCUAACAAGAAAGUCAAAUCUGCCACAAAGCUUGAGAGCAUCUCCGGAUGCAGAGGCGGCAGCCUUCGGUGGCGCGAUAGCGCCAACGUUCUCAACUAUGGCACGCAAAACGCGUGCUCCGUUGAAUGGAGUUUAUCAUG [A21G A26U U56C A113G]: the “polymerase ribozyme fitness (log ratio)” value is at most -4.2.
GGAUCUUCUCGAUCUAACAAGAAAGACAAAUCUGCCACAACGCUUAAGAGCAUCUUCGGAUGCAUAGGCGGCAGCCUUCGGUGGCGCGAUAGCGCCAACGUUCUCAACUAUGACACGCAAAACGCGUGCUCCGUUGAAUGGAGUUUAUCAUG [A21G A41C G46A G65U]: the “polymerase ribozyme fitness (log ratio)” value is at most -4.2.
Turning to GGAUCUUCUCGAUCUAACAACAAAGACAAAUCUGCCACAAAGCUUGAGAGCAUCUUCGGAUGCAGAGUCGGCAGCCUUCGGUGGCGCGAUAGUGUCAACGUUCUCAACUAUGACACGCAAAACGCGUGCUCCGUUGAAUGGAGUUUAUCAUG [A21C G68U C93U C95U], the “polymerase ribozyme fitness (log ratio)” value was at most -4.2.
In the case of GGAUCUUCUCGAUCUAACAACAAAGACAAAUCUGCCACAAAGCUUGAGAGCAUCUUCGGAUGCAGAGGCGGCAGCCUUCGGUGGAGCGAUAGCGCCAACGUUCUCAACUAUGACACGCAAAACGCGAGCUCCGUUGAAUGGAGUUUAUCAUG [A21C C85A U127A], the “polymerase ribozyme fitness (log ratio)” value was at most -4.2.
For the variant GGAUCUUCUCGAUCUAACAAGAAAGACGAAUCUGCCACAAAUCUUGAGAGCAUCUUUGGAUGCAGAGGCGGCAGCCUUCGGUGGCGCGAUAGCGCCAACGUUCUCAACUAUGACACGCAAAACGCGUGCUCCGUUGAAUGGAGUUUACCAUG [A21G A28G G42U C57U U148C], the “polymerase ribozyme fitness (log ratio)” value was at most -4.2.
On to GGAUCUUCUCGAUCUAACAACAAAGACAAAUCUGCCACAAAGCUUGAGAGCAUCUUCGGAUGCAGACGCGGCAGCCUUCGGUGGCCCGAUAGCGCCAUCGUUCUCAACUAUGACACGCAAAACGCGUGUUCCGUUGGCUGGAGUUUAUCAUG [A21C G67C G86C A98U C129U A137G A138C], for which the “polymerase ribozyme fitness (log ratio)” value is at most -4.2.
Regarding GGAUCUUCUCGAUCUAACAAGAAAGACAAAUCUGCCUCAAAGCUUGAGAGCAUCUUCGGAUGCAGAGACGGCAGCCUUCGGUGGCGUGAUAGCGCCAACGUUCUCAUCUAUGACACGCAAAACGCGUGCUCCGGUGAAUGGAGUUUAUCAUG [A21G A37U G68A C87U A107U U134G], the “polymerase ribozyme fitness (log ratio)” value was at most -4.2.
Turning to GGAUCUUCUCGAUCUAACAAGAAAGACAAAUCUGCCACAAAGCUUGAGAGCAUCUUCGGAUGCAGAGGCGGCAGCCUUCGGUGGCGCGAUAGCGCCAACGUUCUCAACUAUGACACGCAAAACGCGUGCUCCGUUGACUGGAGUUUAUCAUG [A21G A138C], the “polymerase ribozyme fitness (log ratio)” value is -4.
As to GGAUCUUCUCGAUCUAACAACAAAGACAAAUCUGCCACAAAGCUUGAGACCAUCUUCGGAUACAGAGGCGGCAGCCUUCGGUGGCGCGAUCGCGCCAACGUUCUCAACUAUGACACGCAAAACGCGUGCUCCGUUGAAUGGAGUUUAUCAUG [A21C G50C G62A A91C], the “polymerase ribozyme fitness (log ratio)” value was at most -4.2.
For GGAUCUUCUCGAUCUAACAAGAAAGACAAAUCUGCCACAAAGCUUGAGAGCAUCUUCGGAUGCAGAGGCGGCAGCCUUCGGUGGCGCGAUCGCGCCAACGUUCUCAACUAUGACACGCAAAACGCGUGCUCCGUUGAAUGGAGUUUAUCAUG [A21G A91C], the “polymerase ribozyme fitness (log ratio)” value is at most -4.2.
As for GGAUCUUCUCGAUCUAACAAGAAAGACAAAUCUGCCACAAAGCUUGCGAGUAUCUUCGGAUGCAGAGGCGGCAGCCUUCGGUGGCGUGAGAGCGCCAACGUUCUCAACUAUGACACGCAAAACGCGUGCUCCGUUGAAUGGAGUUUAUCAUG [A21G A47C C51U C87U U90G], the figure is at most -4.2; as for GGAUCUUCUCGAUCUAACAAGAAGGACAAAUCUGCCACAAAGCUUGGGAGCAUCUUCGGAUGCAGAGGCGGCAGCCUUCGGUGGCGCGAUAGCCCCAACGUGCUCAACUAUGACACGUAAUACGCGUGCUCCGUUGAAUGGAGUUUAUCAUG [A21G A24G A47G G94C U102G C118U A121U], at most -4.2.
For GGAUCUUCUCGAUCUAACAACAAAGACAAAUCUGCCACAAAGCUUGAGAGCAUCUUCGGAUGAAGAGGCGGCAGCCGUCGGUGGCGCGAUAGCGCCAACGUUCUCAACUAUGACACGCAAAACGCGUGCUCCGUUGAAUGGAGUUUAUCAUG [A21C C63A U77G], the “polymerase ribozyme fitness (log ratio)” value is at most -4.2.
As to GGAUCUUCUCGAUCUAACAACAAAGACAAAUCUGCCACAAAGCUUGAGACCAUCUUCGGCUGCUGGGGCGGCAGCCUUCGGUAGCGCGAUAGCGCCAACGUUCUCAACUAUGACACGCAAAACGCGUGCUCCGUUGAAUGGAGUUUAUCAUG [A21C G50C A60C A64U A66G G83A], the “polymerase ribozyme fitness (log ratio)” value was at most -4.2.
On to GGAUCUUCUCGAUCUAACAACAAAGACAAAUCUGCCACAAAGCUUGAGAGCAACAUCGCAUGCAGAGGCGGCAGCCUUCGGUGCCGCGAUAGCGCCAACGUUCUCAACUACGACACGCAAAACGCGUGCUCCGUUGAAUGGAGUUUAUCAUG [A21C U53A U55A G59C G84C U111C], for which the “polymerase ribozyme fitness (log ratio)” value is at most -4.2.
As to GGAUCUUCUCGAUCUAACAACAAAGACAAAUCUGCCACAAAGCUUGAGAGCAUCUUCGGAUGCAGAGGCGGCAGCCUUCGGUGGCGUGAUAGCGCCAACGUUCUCAACUAUGACACGCAAAACGCGUGCUCCGUUGAAUGGAGUUUUUCAUG [A21C C87U A147U], the “polymerase ribozyme fitness (log ratio)” value was 0.884.
